# Test results reported in the supplement of paper PMC8728848.
# This is one part of the list.
# B1: TbCVNHOb (Tuber borchii) (protein)
# chain: MSFYASSEDVRTIEEGGRTWLVGRARRADGSWQDIKLDLDNIIGNRDGHLTWGEQNFTQSASDIRFNFEGGSNVPVLRAKLRNAAGGEQESDLNLGERLTNNNGDLVFN
# Assays:
# Experiment in all cases: glycan array binding signal (z-score within array); higher = stronger binding
# Details in all cases: glycan notation: IUPAC condensed, linker removed
# [1] = molecular target: Gal(b1-4)GlcNAc(b1-3)Gal(b1-4)GlcNAc(b1-3)Gal(b1-4)GlcNAc
# In short: (§1)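 From the Consortium for Functional Glycomics database, 3228 arrays were curated, keeping only those whose protein sequence was available. Binding is given as a within-array Z-score averaged across arrays sharing a protein sequence and across linkers. Negative Z-scores can be read as non-binding.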
# [2] = molecular target: Gal(b1-4)GlcNAc(b1-3)Gal(b1-4)[Fuc(a1-3)]GlcNAc(b1-3)Gal(b1-4)[Fuc(a1-3)]GlcNAc
# In short: as §1
# [3] = molecular target: Gal(b1-4)GlcNAc(b1-3)GalNAc
# In short: as §1
# [4] = molecular target: Gal(b1-4)GlcNAc(b1-3)[Gal(b1-4)GlcNAc(b1-6)]Gal(b1-4)GlcNAc
# In short: as §1
# [5] = molecular target: Gal(b1-4)GlcNAc(b1-3)[Gal(b1-4)GlcNAc(b1-6)]GalNAc
# In short: as §1
# [6] = molecular target: Gal(b1-4)GlcNAc(b1-3)[GlcNAc(b1-6)]Gal(b1-4)GlcNAc
# In short: as §1
# [7] = molecular target: Gal(b1-4)GlcNAc(b1-6)Gal(b1-4)GlcNAc
# In short: as §1
# [8] = molecular target: Gal(b1-4)GlcNAc(b1-6)Gal(b1-4)GlcNAc(b1-6)GalNAc
# In short: as §1
# [9] = molecular target: Gal(b1-4)GlcNAc(b1-6)GalNAc
# In short: as §1
# [10] = molecular target: Gal(b1-4)GlcNAc(b1-6)[Gal(b1-3)]GalNAc
# In short: as §1
# Gal3S(b1-3)GalNAc = molecular target: Gal3S(b1-3)GalNAc
# In short: as §1
# Gal3S(b1-3)GlcNAc = molecular target: Gal3S(b1-3)GlcNAc
# In short: as §1
# [11] = molecular target: Gal3S(b1-3)[Fuc(a1-4)]GlcNAc
# In short: as §1
# Gal3S(b1-4)Glc = molecular target: Gal3S(b1-4)Glc
# In short: as §1
# Gal3S(b1-4)Glc6S = molecular target: Gal3S(b1-4)Glc6S
# In short: as §1
# Gal3S(b1-4)GlcNAc = molecular target: Gal3S(b1-4)GlcNAc
# In short: as §1
# Gal3S(b1-4)GlcNAc6S = molecular target: Gal3S(b1-4)GlcNAc6S
# In short: as §1
# [12] = molecular target: Gal3S(b1-4)[Fuc(a1-3)]Glc
# In short: as §1
# Gal3S4S(b1-4)GlcNAc = molecular target: Gal3S4S(b1-4)GlcNAc
# In short: as §1
# Gal3S6S(b1-4)GlcNAc = molecular target: Gal3S6S(b1-4)GlcNAc
# In short: as §1
# Gal3S6S(b1-4)GlcNAc6S = molecular target: Gal3S6S(b1-4)GlcNAc6S
# In short: as §1
# Gal4S(b1-4)GlcNAc = molecular target: Gal4S(b1-4)GlcNAc
# In short: as §1
# Gal4S6S(b1-4)GlcNAc = molecular target: Gal4S6S(b1-4)GlcNAc
# In short: as §1
# Gal6S(b1-4)Glc = molecular target: Gal6S(b1-4)Glc
# In short: as §1
# Gal6S(b1-4)Glc6S = molecular target: Gal6S(b1-4)Glc6S
# In short: as §1
# Gal6S(b1-4)GlcNAc = molecular target: Gal6S(b1-4)GlcNAc
# In short: as §1
# Gal6S(b1-4)GlcNAc6S = molecular target: Gal6S(b1-4)GlcNAc6S
# In short: as §1
# GalNAc(a1-3)Gal = molecular target: GalNAc(a1-3)Gal
# In short: as §1
# GalNAc(a1-3)GalNAc = molecular target: GalNAc(a1-3)GalNAc
# In short: as §1
# GalNAc(b1-3)Gal = molecular target: GalNAc(b1-3)Gal
# In short: as §1
# [13] = molecular target: GalNAc(b1-3)Gal(a1-4)Gal(b1-4)GlcNAc
# In short: as §1
# GalNAc(b1-3)GalNAc = molecular target: GalNAc(b1-3)GalNAc
# In short: as §1
# GalNAc(b1-4)GlcNAc = molecular target: GalNAc(b1-4)GlcNAc
# In short: as §1
# Glc(a1-4)Glc = molecular target: Glc(a1-4)Glc
# In short: as §1
# Glc(a1-6)Glc(a1-6)Glc = molecular target: Glc(a1-6)Glc(a1-6)Glc
# In short: as §1
# Glc(b1-4)Glc = molecular target: Glc(b1-4)Glc
# In short: as §1
# Glc(b1-6)Glc = molecular target: Glc(b1-6)Glc
# In short: as §1
# GlcA(b1-3)Gal = molecular target: GlcA(b1-3)Gal
# In short: as §1
# GlcA(b1-3)GlcNAc = molecular target: GlcA(b1-3)GlcNAc
# In short: as §1
# GlcA(b1-6)Gal = molecular target: GlcA(b1-6)Gal
# In short: as §1
# [14] = molecular target: GlcNAc(a1-3)Gal(b1-4)GlcNAc
# In short: as §1
# [15] = molecular target: GlcNAc(a1-6)Gal(b1-4)GlcNAc
# In short: as §1
# [16] = molecular target: GlcNAc(b1-2)Gal(b1-3)GalNAc
# In short: as §1
# [17] = molecular target: GlcNAc(b1-2)Man(a1-3)[GlcNAc(b1-2)Man(a1-6)]Man(b1-4)GlcNAc(b1-4)GlcNAc
# In short: as §1
# GlcNAc(b1-3)Gal = molecular target: GlcNAc(b1-3)Gal
# In short: as §1
binder,measurement,setting,value
B1,glycan array binding signal (z-score),[1],-0.25
same,glycan array binding signal (z-score),[2],-0.056
same,glycan array binding signal (z-score),[3],-0.113
same,glycan array binding signal (z-score),[4],-0.173
same,glycan array binding signal (z-score),[5],-0.321
same,glycan array binding signal (z-score),[6],-0.156
same,glycan array binding signal (z-score),[7],-0.142
same,glycan array binding signal (z-score),[8],-0.296
same,glycan array binding signal (z-score),[9],-0.122
same,glycan array binding signal (z-score),[10],-0.225
same,glycan array binding signal (z-score),Gal3S(b1-3)GalNAc,-0.165
same,glycan array binding signal (z-score),Gal3S(b1-3)GlcNAc,0.006
same,glycan array binding signal (z-score),[11],-0.06
same,glycan array binding signal (z-score),Gal3S(b1-4)Glc,-0.222
same,glycan array binding signal (z-score),Gal3S(b1-4)Glc6S,-0.072
same,glycan array binding signal (z-score),Gal3S(b1-4)GlcNAc,-0.125
same,glycan array binding signal (z-score),Gal3S(b1-4)GlcNAc6S,-0.026
same,glycan array binding signal (z-score),[12],-0.239
same,glycan array binding signal (z-score),Gal3S4S(b1-4)GlcNAc,-0.127
same,glycan array binding signal (z-score),Gal3S6S(b1-4)GlcNAc,-0.149
same,glycan array binding signal (z-score),Gal3S6S(b1-4)GlcNAc6S,0.125
same,glycan array binding signal (z-score),Gal4S(b1-4)GlcNAc,0.051
same,glycan array binding signal (z-score),Gal4S6S(b1-4)GlcNAc,-0.061
same,glycan array binding signal (z-score),Gal6S(b1-4)Glc,-0.073
same,glycan array binding signal (z-score),Gal6S(b1-4)Glc6S,0.112
same,glycan array binding signal (z-score),Gal6S(b1-4)GlcNAc,-0.01
same,glycan array binding signal (z-score),Gal6S(b1-4)GlcNAc6S,-0.117
same,glycan array binding signal (z-score),GalNAc(a1-3)Gal,0.064
same,glycan array binding signal (z-score),GalNAc(a1-3)GalNAc,-0.091
same,glycan array binding signal (z-score),GalNAc(b1-3)Gal,0.254
same,glycan array binding signal (z-score),[13],0.184
same,glycan array binding signal (z-score),GalNAc(b1-3)GalNAc,0.008
same,glycan array binding signal (z-score),GalNAc(b1-4)GlcNAc,0.024
same,glycan array binding signal (z-score),Glc(a1-4)Glc,-0.033
same,glycan array binding signal (z-score),Glc(a1-6)Glc(a1-6)Glc,0.006
same,glycan array binding signal (z-score),Glc(b1-4)Glc,-0.189
same,glycan array binding signal (z-score),Glc(b1-6)Glc,-0.193
same,glycan array binding signal (z-score),GlcA(b1-3)Gal,0
same,glycan array binding signal (z-score),GlcA(b1-3)GlcNAc,0.207
same,glycan array binding signal (z-score),GlcA(b1-6)Gal,-0.242
same,glycan array binding signal (z-score),[14],-0.104
same,glycan array binding signal (z-score),[15],-0.136
same,glycan array binding signal (z-score),[16],0.017
same,glycan array binding signal (z-score),[17],-0.107
same,glycan array binding signal (z-score),GlcNAc(b1-3)Gal,-0.192
